Experimental findings from the supplement of paper PMC11417369 are described below.

± gives the standard deviation of the averaged measurements. Some of the results follow.

In the assay the test system is PfAP2-EXP AP2 domain (GST-tagged). The assay is described as follows: gcPBM binding intensity (ln(normalized median fluorescence intensity)); higher = stronger DNA binding. The gist of the method: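 For binding intensity, the highest Masliner-normalised natural-log median intensity across replicate spots of either probe orientation was taken. Protein bound to the array was stained with Alexa488 anti-GST antibody and scanned at 488 nm. The protein, GST-tagged P. falciparum DNA-binding domains from E. coli at about 25 μg on average, had been applied for 1 h to an Agilent 4 × 180k array of primer-extended double-stranded 36-bp intergenic genomic probes and negative controls.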
On to “AAACAAATAGACACTTGTACGTAAGTAAATAATTAA [XGTACX_site6157]”, for which the “gcPBM binding intensity (ln)” value was determined as 8.74 ± 0.43. As for “TATGTTAAAAAAAAAAAAAAGAAAAAAATAAAAGGA [CACACA_negctrl_site119]”, the “gcPBM binding intensity (ln)” value is 8.45 ± 0.42. With “AAGGGAAAAATATGGTTGCACTAAAAATATGTAATT [GTGCAC_site9605]”, the “gcPBM binding intensity (ln)” value was 8.65 ± 0.31. The value for “TTTCTATATAGATTTGCACACATAAAAATGCTTATA [CACACA_site2390]” was 8.58 ± 0.33; that for “CTTTATACATGACATAGTACCCATTTTAGATTTGAA [XGTACX_site5240]” was 8.52 ± 0.38. The value for “GTCCCTATAAGGGGAACACACATAAATGAATATATA [CACACA_site1024]” was 8.48 ± 0.5.

On to TTTTTTTGTTAAAAGGTGCTAATATATATAAGTGCT, for which the “gcPBM binding intensity (ln)” value was 8.66 ± 0.17. “TTATATATTTATATATGTACACATTTTACCATTTTT [XGTACX_site2142]”: the “gcPBM binding intensity (ln)” value was determined as 8.59 ± 0.34. The value for “AAATTTATAAAGAACACACACATATAAATATAAATA [CACACA_site6174]” was 8.93 ± 0.49. Take “TTAAAATGTTGTAACGTGCACATTTTGTGGAAATCA [GTGCAC_site9559]”: the “gcPBM binding intensity (ln)” value is 8.64 ± 0.3. On to ATTTATTTCTTGTTAGTGCACTTTCTTTGGTAAAAT, for which the “gcPBM binding intensity (ln)” value is 9.49 ± 0.014. To “TATACAGATGGACACACACACATATATATATATATA [CACACA_site5272]” belongs 10.2 ± 0.3; to “TTATAATTGTAAGGTAGTACATATAAATCAAATAAT [XGTACX_site7190]”, 8.74 ± 0.35.

As for “ATGAATCTTTTAAAAAGTACATGTGAAAAAAATAAA [XGTACX_site49]”, the “gcPBM binding intensity (ln)” value was 8.63 ± 0.3. To “ATACAAACAATTATTTGTACATAAAATTTTTTTTTT [XGTACX_site90]” belongs 8.36 ± 0.23. “ATATTTATATATTGCACACAAAAAAAAAAAAAAATC [CACACA_site1629]”: the “gcPBM binding intensity (ln)” value was found to be 8.59 ± 0.085. To “TATATATATATGTAATGTACATAAATTTTATACCTT [XGTACX_site6991]” belongs 9.93 ± 0.23; to “AATATAAATAAACACACACACATATATATATATATT [CACACA_site2906]”, 8.72 ± 0.37. For the sequence “CAGTAGTATATACTATGTACATATTTATATTATATT [XGTACX_site4964]”, the “gcPBM binding intensity (ln)” value amounted to 8.5 ± 0.4. To “TAATAAATAAAAATAGAACACACATATGTTTTTTTT [CACACA_site9185]” belongs 8.28 ± 0.38; to “AAAAAAAAAAAAAAATGTACATATATATAAATAAAA [XGTACX_site5574]”, 8.51 ± 0.45. Take “TATATTCATAATATTACACACGTTCATTTATTTTAA [CACACA_site2031]”: the “gcPBM binding intensity (ln)” value amounted to 8.6 ± 0.42. Turning to “TATGGTTTTAAAAAATGTACGCAAGTGCGTTAATTT [XGTACX_site3945]”, the “gcPBM binding intensity (ln)” value amounted to 8.57 ± 0.042. Consider “GAGTGAAATATGCAAACACACACGAGAAAAATGTAT [CACACA_site3196]”, for which the “gcPBM binding intensity (ln)” value was 8.96 ± 0.52. For the sequence “TTATATGCATAAAAAGGTACACATATATAAATAAAT [XGTACX_site6894]”, the “gcPBM binding intensity (ln)” value turned out to be 8.76 ± 0.42.
